# Source: the supplement of paper PMC10126150
# Values marked as one replicate rest on one cluster of the flow cell; about a third of the high ones do not repeat.
# Test system: ATP
# Assay: switch fluorescence ratio, 500 uM ATP over buffer (Cy3 cluster intensity, sum of 5 cycles each) (fold (ratio)); higher = stronger signal-on switching upon ATP binding; sequences stand for … in TCGTCGGCAGCGTCAGATGTGTATAAGAGACAGTTTTTTTTTTTTTTTTTTTTTTTTT…TC
# Details: aptamer strand: ATP DNA aptamer (quencher-CACCTGGGGGAGTATTGCGGAGGAAGG + anchor), 100 nM annealed; ATP concentration: 500 uM; one replicate
# Procedure, shortened: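 The quencher-labelled ATP aptamer, at 100 nM, was annealed to Cy3-labelled switching-strand clusters on a modified Illumina MiSeq flow-cell. The clusters were imaged in selection buffer, then after 15 min with 500 uM ATP at 22 °C, and this buffer/ATP cycle ran five times with NaOH stripping and re-annealing between runs. Per-cluster fluorescence ratios, summed target-cycle over summed buffer-cycle Cy3 intensity, were averaged per switch-domain sequence. Clusters outside 100-1000 RFU were excluded.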
# 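Further: ATP exposure 15 min at 22 °C before imaging.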
sequence,measurement,value
TCACTGGGGC,switch fluorescence ratio,0.97
AAACTGCTAT,switch fluorescence ratio,1.16
AGTTATGATG,switch fluorescence ratio,0.957
GGAAAAAACG,switch fluorescence ratio,1.06
TGCATTACAC,switch fluorescence ratio,1.26
TGGGGCTCAA,switch fluorescence ratio,1
TATAGTGA,switch fluorescence ratio,0.998
AAGTGAGGCG,switch fluorescence ratio,0.99
TAATCCGTGC,switch fluorescence ratio,1.27
TTGAAGTCAC,switch fluorescence ratio,1.54
GGGGAAGATG,switch fluorescence ratio,0.978
GTTGCCCGCC,switch fluorescence ratio,1
TTCAGACAGA,switch fluorescence ratio,0.982
TCATAATCC,switch fluorescence ratio,0.995
AAAGCAGCTT,switch fluorescence ratio,0.998
TTCAATGAAG,switch fluorescence ratio,0.991
CCGGTCATTT,switch fluorescence ratio,1.03
TTGAGGAGGT,switch fluorescence ratio,0.917
ACTGGTAGTG,switch fluorescence ratio,1.01
TCCAGAATG,switch fluorescence ratio,1.01
GTTTATATGG,switch fluorescence ratio,0.974
CGATGAAAAT,switch fluorescence ratio,1
CCGGATGTGC,switch fluorescence ratio,1.51
GGAGATCGGA,switch fluorescence ratio,1.09
TGCTTGGCC,switch fluorescence ratio,0.977
ATCAAGCGTA,switch fluorescence ratio,1.01
AGCGTGCACG,switch fluorescence ratio,1.03
CACGGCGTTA,switch fluorescence ratio,1.02
GTAGCGCAGC,switch fluorescence ratio,1.03
AGGCACTGGA,switch fluorescence ratio,1.04
TGGCCCCTAG,switch fluorescence ratio,0.987
ACACAGGTGG,switch fluorescence ratio,1.23
TCCGCCAAA,switch fluorescence ratio,1.37
GTGGTGTCTA,switch fluorescence ratio,0.973
GGTGCGTTCG,switch fluorescence ratio,0.966
TGTGCGAGAG,switch fluorescence ratio,1.01
GACGTCCACC,switch fluorescence ratio,1.44
ATGATAGGG,switch fluorescence ratio,0.992
CCAGTCCTTC,switch fluorescence ratio,1.05
TGCAACGCAT,switch fluorescence ratio,1.01
AGTGAGGTAC,switch fluorescence ratio,1.05
AAGTATGGCA,switch fluorescence ratio,1.03
CGTCGTTGCC,switch fluorescence ratio,0.987
TTGATTGCC,switch fluorescence ratio,0.989
GATGACTTCG,switch fluorescence ratio,0.965
GGGTGCGTAA,switch fluorescence ratio,0.996
AAGTGAGTTC,switch fluorescence ratio,0.975
GCTCACGCGC,switch fluorescence ratio,1.55
TCTACGGCAG,switch fluorescence ratio,1.07
TCTACCACTA,switch fluorescence ratio,0.987
GGGACGGCGT,switch fluorescence ratio,0.975
ACCGTGCACT,switch fluorescence ratio,1.04
GGGACGTAAG,switch fluorescence ratio,1.06
TTGGGATGC,switch fluorescence ratio,1.03
GCCACTGGGG,switch fluorescence ratio,1.01
TTAACGCGTC,switch fluorescence ratio,0.983
GGAATCGGTT,switch fluorescence ratio,0.972
GCGGGAACCG,switch fluorescence ratio,1
AGCTATCCGG,switch fluorescence ratio,0.989
AAGGATGATA,switch fluorescence ratio,1.02
ATCGGTGCG,switch fluorescence ratio,1.02
CCGATAGCAC,switch fluorescence ratio,2.71
CACCCGGTTT,switch fluorescence ratio,1.04
CGGCTACTCG,switch fluorescence ratio,1.34
AATAGTCTCG,switch fluorescence ratio,1.01
CGTGACGGGT,switch fluorescence ratio,0.964
TCCCGGGGGC,switch fluorescence ratio,1.06
AGTCGGATAA,switch fluorescence ratio,0.964
CGTAGGTGT,switch fluorescence ratio,1.06
CGGAGTCGCT,switch fluorescence ratio,1.03
CAATTCGTTG,switch fluorescence ratio,0.931
CAATTTAGGA,switch fluorescence ratio,0.978
CTTTGTGTCA,switch fluorescence ratio,1.03
GGTGTCATGG,switch fluorescence ratio,0.971
TCAATGCCCA,switch fluorescence ratio,1
TCTTTTCTCA,switch fluorescence ratio,1.05
TAAAACTACG,switch fluorescence ratio,1.01
ACTCGTCGTA,switch fluorescence ratio,1
GCGTCGGAAC,switch fluorescence ratio,1.03
GTTGGCATAT,switch fluorescence ratio,1.06
ATTTTCATTC,switch fluorescence ratio,1.03
TCAAGGTGGC,switch fluorescence ratio,0.974
GGATCGTTCG,switch fluorescence ratio,0.969
TTAGCCGTTT,switch fluorescence ratio,1.03
CCCAAGTTAT,switch fluorescence ratio,1.03
AATTTGTGGT,switch fluorescence ratio,0.987
GCTACTAGTA,switch fluorescence ratio,0.977
TGACAGCCTA,switch fluorescence ratio,1
AGGGAAAATA,switch fluorescence ratio,1.06
ATCCGGCGTG,switch fluorescence ratio,0.978
CGTAGATACG,switch fluorescence ratio,0.992
TTAGGGGTAA,switch fluorescence ratio,1
ACAGTAGTGA,switch fluorescence ratio,0.996
ATTTCCGAGT,switch fluorescence ratio,1.08
TCGTGGGGG,switch fluorescence ratio,1.06
GTGAATATTT,switch fluorescence ratio,1
CGAGCTATAA,switch fluorescence ratio,5.15
ACGCGACGGG,switch fluorescence ratio,1.01
AGGGATGACA,switch fluorescence ratio,1
TGGAGCTGGT,switch fluorescence ratio,0.998
AGAGCTGTCC,switch fluorescence ratio,0.98
GGGGAACACA,switch fluorescence ratio,1
TATTATGCCT,switch fluorescence ratio,1.04
CGTCTTTCTA,switch fluorescence ratio,0.97
CGGCGGTCTG,switch fluorescence ratio,0.972
GGTTAGTTTC,switch fluorescence ratio,0.985
CCACATCGGG,switch fluorescence ratio,0.978
ATTATCAAAG,switch fluorescence ratio,1.02
AGTAAACTT,switch fluorescence ratio,1.06
CGCGGTTCG,switch fluorescence ratio,1.03
GACTTGCATG,switch fluorescence ratio,1.03
CAAGTATTT,switch fluorescence ratio,1.01
TCGGACCTCC,switch fluorescence ratio,1.3
ATGCCATATC,switch fluorescence ratio,0.997
TAAGTGGCAG,switch fluorescence ratio,0.98
ATTATGTACG,switch fluorescence ratio,1.09
AGGCGAAGG,switch fluorescence ratio,0.998
GGCCGTTGGA,switch fluorescence ratio,0.977
AGATGGCAAG,switch fluorescence ratio,0.982
CGTGTCTCCC,switch fluorescence ratio,1.3
TTTTACACAC,switch fluorescence ratio,1.43
TCGCGTGGTC,switch fluorescence ratio,1.03
TCGGTCAAAC,switch fluorescence ratio,1.18
TGATGCTGAT,switch fluorescence ratio,1
GGGATTGTTA,switch fluorescence ratio,1.01
GATATTCCCG,switch fluorescence ratio,1.05
GAAGCGATAG,switch fluorescence ratio,4.94
TTGAATGCTC,switch fluorescence ratio,1.08
CACTTCTCTG,switch fluorescence ratio,1.07
TTAGTACTG,switch fluorescence ratio,0.981
AGCACCTGGG,switch fluorescence ratio,1.14
CTAAGAGGCA,switch fluorescence ratio,1
AAGACTTGG,switch fluorescence ratio,1.04
AGACGGGAGT,switch fluorescence ratio,1.07
TTTCCTAAAA,switch fluorescence ratio,1.02
AAAATCCGTC,switch fluorescence ratio,1
TACACAGGGG,switch fluorescence ratio,1.04
GATTAAGATC,switch fluorescence ratio,1.02
GTGTAAATCC,switch fluorescence ratio,0.978
AATAAGACTT,switch fluorescence ratio,0.982
CGCAGCTGAT,switch fluorescence ratio,1.91
AGTGTAGGTC,switch fluorescence ratio,1.08
AACATTTCTA,switch fluorescence ratio,0.994
CGGGCGTATA,switch fluorescence ratio,1.02
CGAATGGAAG,switch fluorescence ratio,0.971
GGTTTTTCCT,switch fluorescence ratio,1.04
GATAATTCCT,switch fluorescence ratio,1
TATTCGAGT,switch fluorescence ratio,0.978
TAAAAGAAAG,switch fluorescence ratio,0.958
GGTTTTTAAC,switch fluorescence ratio,0.962
ATGCCAACGT,switch fluorescence ratio,1
TTAGTGCACT,switch fluorescence ratio,0.984
TGGGAAATTG,switch fluorescence ratio,1
ACCCGTAAAT,switch fluorescence ratio,1.12
TCATAAACGA,switch fluorescence ratio,1.01
AGGTATTGGC,switch fluorescence ratio,1.12
AATTAGATT,switch fluorescence ratio,1.01
AGACTCATGC,switch fluorescence ratio,1.02
TCGGCGTCGT,switch fluorescence ratio,1.06
ATGAAGAACC,switch fluorescence ratio,0.991
GGGACGGAAT,switch fluorescence ratio,1.1
TCTGTGTAAA,switch fluorescence ratio,0.972
CGGAAATCCA,switch fluorescence ratio,0.953
GCGGTTCGCC,switch fluorescence ratio,1.02
GCCGTAGTTA,switch fluorescence ratio,0.991
TATAAATACC,switch fluorescence ratio,1.42
ATACCAGGTA,switch fluorescence ratio,1.12
TGCCCCACAC,switch fluorescence ratio,1.09
GGTCTGTGCG,switch fluorescence ratio,1
ACGGAGTGAA,switch fluorescence ratio,1.04
CCACTTACTT,switch fluorescence ratio,1.23
GCTATGTGAC,switch fluorescence ratio,1.05
TGCTAGGGAG,switch fluorescence ratio,0.998
TTATCCCCAC,switch fluorescence ratio,1.02
TATCGCCTCA,switch fluorescence ratio,1.01
TGGCTATGCA,switch fluorescence ratio,0.98
ACAGGCAAGT,switch fluorescence ratio,0.969
ATTCGGGCAA,switch fluorescence ratio,1.31
GGTGTTAGCT,switch fluorescence ratio,1.05
AAATCTTGGG,switch fluorescence ratio,1
TTACCCCAGA,switch fluorescence ratio,1.18
GGGGACAGCG,switch fluorescence ratio,0.981
TTAGGTGAAG,switch fluorescence ratio,1.04
AGCAGAGCAG,switch fluorescence ratio,1.02
GAATCACTGA,switch fluorescence ratio,1
AGGATCCGGC,switch fluorescence ratio,1.04
AAGTGGCCTT,switch fluorescence ratio,0.981
GCGATCTTCC,switch fluorescence ratio,2.43
CCGTTTGGTG,switch fluorescence ratio,1.06
ACTGTCAAAG,switch fluorescence ratio,0.999
AAAATTAGTG,switch fluorescence ratio,0.979
GCGAGTGGGG,switch fluorescence ratio,1.04
GGGGTCCTCC,switch fluorescence ratio,1.34
TATAGGCAAG,switch fluorescence ratio,0.994
TCGAATTATC,switch fluorescence ratio,1.02
ACTCAGCCGA,switch fluorescence ratio,1.15
GTGATTGGTA,switch fluorescence ratio,0.982
TGGACTGAGT,switch fluorescence ratio,1.02
CAAGTGGTA,switch fluorescence ratio,0.977
TCTTTTAGTT,switch fluorescence ratio,0.989
TTCGCAGCAC,switch fluorescence ratio,2.65
